# Assay results reported in publication PMC4336329 (PLoS ONE, 2015).
# The campaign covered roughly 310,000 compounds. About 14,000 (4.5%) showed an effect of 50% or more. The effect is printed as a negative number. The list shows a part of the results.
# Biological target: human ether-à-go-go-related gene (hERG) potassium channel (human, UniProt Q12809)
# Assay: primary screen, population patch clamp on CHO cells stably expressing hERG
# 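Further: peak tail current of the secondary pulse compared with the same well before compound.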
# Sequence of human ether-à-go-go-related gene (hERG) potassium channel (Q12809 whole entry, looked up): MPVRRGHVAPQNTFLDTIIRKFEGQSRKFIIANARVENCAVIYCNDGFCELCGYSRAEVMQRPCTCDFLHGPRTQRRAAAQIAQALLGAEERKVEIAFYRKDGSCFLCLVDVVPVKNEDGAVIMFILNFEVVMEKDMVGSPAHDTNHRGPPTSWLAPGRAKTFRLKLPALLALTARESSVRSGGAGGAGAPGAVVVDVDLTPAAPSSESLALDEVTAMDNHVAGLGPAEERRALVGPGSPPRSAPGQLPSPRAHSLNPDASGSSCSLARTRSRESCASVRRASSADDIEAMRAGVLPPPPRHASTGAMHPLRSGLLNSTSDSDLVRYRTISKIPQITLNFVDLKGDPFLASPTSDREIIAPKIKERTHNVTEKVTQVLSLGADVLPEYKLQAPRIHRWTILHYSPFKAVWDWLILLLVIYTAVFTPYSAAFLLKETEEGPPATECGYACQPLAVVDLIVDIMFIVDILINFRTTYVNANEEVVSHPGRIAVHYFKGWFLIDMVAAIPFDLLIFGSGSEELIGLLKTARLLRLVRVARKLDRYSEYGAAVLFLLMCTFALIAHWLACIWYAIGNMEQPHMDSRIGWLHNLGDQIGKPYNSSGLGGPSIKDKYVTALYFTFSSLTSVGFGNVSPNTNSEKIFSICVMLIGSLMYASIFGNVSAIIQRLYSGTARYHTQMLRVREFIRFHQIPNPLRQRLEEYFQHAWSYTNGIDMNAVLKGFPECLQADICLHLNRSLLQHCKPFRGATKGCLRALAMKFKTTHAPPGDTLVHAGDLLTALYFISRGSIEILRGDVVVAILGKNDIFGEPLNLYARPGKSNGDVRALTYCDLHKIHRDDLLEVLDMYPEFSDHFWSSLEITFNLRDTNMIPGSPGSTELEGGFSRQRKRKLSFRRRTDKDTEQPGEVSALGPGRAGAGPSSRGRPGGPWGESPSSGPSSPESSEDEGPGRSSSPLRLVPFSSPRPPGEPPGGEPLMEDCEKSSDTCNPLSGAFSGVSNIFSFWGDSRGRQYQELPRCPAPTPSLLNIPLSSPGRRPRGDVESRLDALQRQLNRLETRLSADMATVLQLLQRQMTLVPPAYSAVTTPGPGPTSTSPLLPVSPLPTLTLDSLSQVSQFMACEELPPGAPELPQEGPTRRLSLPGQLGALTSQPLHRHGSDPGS
row,Structure (SMILES),"hERG current change (%, negative = inhibition) at 10uM [%]"
1,Cc1cccc(COc2ccc(/C=C3/C(=O)N(C)C(=S)N3C)cc2)c1,15.7
2,COc1ccc(Cl)cc1NC(=O)C1CCCN(c2ncnc3c2nc2n3CCCCC2)C1 (centres unmarked),-37.6
3,CCc1c(C)sc(NC(=O)c2ccoc2C)c1C(N)=O,-5.04
4,Cc1c(-c2nnc(SCC(=O)O)n2-c2ccccc2Br)nnn1-c1ccccc1.O,7.3
5,O=C(CN1CCc2ccccc2C1)Nc1ccccc1F,3.13
6,COc1ccc(OC)c(NC(=O)C(=S)NC2CCCCC2)c1,22.3
7,CC(C)OC(=O)c1c(N)sc2c1CCCC2,0.961
8,CCn1ncc(/C=N/NC(=O)c2ccc3c(c2)OCO3)c1C,11.5
9,C[C@H](NC(=O)c1nc[nH]c1C(=O)NCC(=O)OCc1ccccc1)c1ccccc1,-10
10,COc1ccc(/C=N/NC(=O)c2cc(-c3cccnc3)nc3ccccc23)c(OC)c1,7.71
11,CCC1C(=O)NCCN1C(=O)c1ccc2nc(Cc3cccc(Cl)c3)oc2c1 (centres unmarked),-18.6
12,O=C1NC(c2ccco2)Nc2ccccc21 (centres unmarked),8.81
13,COc1ccccc1CNC(=O)CCSCc1cccc(Cl)c1,-9.48
14,N#C/C(=C/c1ccc(N2CCCCCC2)o1)c1ccc(Cl)cc1,-3.68
15,COc1ccc(CN2Cc3cccc4c3[C@@H](CC2=O)[C@H](O)[C@H](O)C4)cc1,24.1
16,CCc1ccccc1N(CC)C(=O)C1CCN(c2ncnc3c2nc2n3CCCCC2)CC1,-25.1
17,CSc1nc2ccc(Br)cc2[nH]1,10.9
18,O=P(OC1CCCCC1)(OC1CCCCC1)C(O)c1ccc(Cl)cc1Cl (centres unmarked),-11.4
19,O=C(Nc1nc(-c2ccc(Cl)cc2)cs1)C1=COCCO1,-15.7
20,Cc1cccc(OCc2nnc(-c3ccc(F)cc3)o2)c1,-12.8
21,O=C(Nc1c2c(nn1-c1ccccc1)CS(=O)C2)c1ccco1 (centres unmarked),7.5
22,Cc1ccn2c(c1)nc(=S)n2C(=O)c1ccco1,-0.888
23,O=C(CCc1ccccc1)Nc1cccc(NC(=O)CCc2ccccc2)c1,-13.4

row,Structure (SMILES),"hERG current change (%, negative = inhibition) at 10uM [%]"
1,Cc1nc(N2CCN(C(=O)c3ccco3)CC2)c(C#N)c2c1CCCC2,3.21
2,CCCCOC(=O)Nc1cc(OC)c(Cl)cc1OC,-10.5
3,O=C(Nc1cccc2ccccc12)OCc1cncs1,-8.17
4,COC(=O)c1sc(S(=O)(=O)NCCC(=O)O)c(C(=O)OC)c1C,5.17
5,N#Cc1ccc(Oc2nc(C#N)cc(-c3ccccc3)n2)cc1,-8.65
6,COc1ccc(NC(=S)SC)cc1OC,6.44
7,O=C(Nc1ccccc1C(=O)Nc1cccnc1)c1ccccc1,0.583
8,COc1ccc(C2=Nc3ccc(Br)cc3C(c3ccccc3)N2CC(=O)NN)cc1 (centres unmarked),-38.9
9,CC(C)C(C)NC(=O)CN1C(=O)NC2(CCc3ccccc3C2)C1=O (centres unmarked),13.1
10,CCOc1nc(Nc2ccc(Cl)cc2)nc(OCC)n1,4.01
11,O=C(CNC(=O)Cc1ccccc1)NCc1cccs1,9.32
12,CCc1nn(-c2cc(Oc3ccccc3)nc(-c3ccccc3)n2)c(N)c1C#N,16.8
13,Cc1ccc(C(=O)NCCN2CCOCC2)cc1S(=O)(=O)N1CCCCC1,-20.7
14,O=C(Nc1cccc(-c2nnc(-c3ccccc3)o2)c1)c1ccc(Br)o1,-30.8
15,O=C(Nc1ccc(Nc2ccccc2)cc1)c1cccc(F)c1,18.6
16,O=C(C[n+]1cc(-c2ccc(F)cc2)n2c1CCC2)c1cccs1.[Br-],2.11
17,N#C/C(=C(\O)c1cc(Cl)sc1Cl)c1nc2ccccc2[nH]1,17.1
18,CC1=C(C(=O)OC(C)C)C(c2cccnc2)C2=C(CCCC2=O)N1 (centres unmarked),6.07
19,N#Cc1ccc(CSc2nnc(NC(=O)C3CC(=O)N(c4ccc5c(c4)OCCO5)C3)s2)cc1 (centres unmarked),3.99
20,C=CCn1c(-c2cc(OC)c(OC)c(OC)c2)n[nH]c1=S,10.5
21,CN(c1ccccc1)c1nc(N)c([N+](=O)[O-])c(Nc2ccccc2F)n1,23
22,Cc1ccc(CSc2nc(N)cc(=O)[nH]2)cc1,14.2
23,CCn1c2ccccc2c2cc(NC(=O)c3ccccc3-c3ccccc3C(=O)O)ccc21,11.2

row,Structure (SMILES),"hERG current change (%, negative = inhibition) at 10uM [%]"
1,CCOC(=O)CC(=O)CSc1nc2sc(C)cc2c(=O)n1Cc1ccco1,-51.5
2,CCOC(=O)N1CCN(C(c2ccc(Cl)cc2)c2sc3nc(C)nn3c2O)CC1 (centres unmarked),-42.9
3,O=C(Nc1ccccc1)Nc1cccc(Cl)c1Cl,2.86
4,COC(c1ccccc1)c1nnc(CCC(=O)NCCCc2ccccc2)o1 (centres unmarked),9.44
5,O=C1CCCC2=C1C(c1cccs1)n1nc(SCc3ccccc3F)nc1N2 (centres unmarked),3.74
6,Cc1ccc(-c2cnc(SCC(=O)N3CCCc4ccccc43)n2C)cc1,-50.8
7,O=C(Nc1cc(Cl)ccc1Oc1ccccc1)C1=COCCO1,9.97
8,CCc1noc(C)c1C(=O)N1CCN(S(=O)(=O)c2ccc(Br)cc2)CC1,-30.2
9,CC(C)(O)C(=O)NN(C(=O)c1ccccc1)c1cccc(Br)c1,10.4
10,O=C1c2cccc(OCC(=O)N3N=C(c4cccs4)CC3c3ccc(F)cc3)c2CCN1Cc1ccccc1 (centres unmarked),-7.69
11,Cl.Cn1nnnc1SCCNCc1ccc(Cl)cc1,-9.62
12,C=CCN(c1ccccc1)S(=O)(=O)c1c(C)[nH]c(=O)[nH]c1=O,2.84
13,Cc1c(NC(=O)COC(=O)c2ccc(F)c(S(=O)(=O)N3CCOCC3)c2)c(=O)n(-c2ccccc2)n1C,9.22
14,COc1ccc(CN2CCN(C(=O)c3cc(C4CC4)nn3-c3ccccc3)CC2)cc1F,-48.6
15,COc1cccc(/C=C(/C#N)c2ccc(Cl)cc2)c1OCc1cccc(C(=O)O)c1,26.1
16,Cc1cccn2c(=O)c3cc(C#N)c(=NC(=O)c4cccnc4)n(CC4CCCO4)c3nc12 (centres unmarked),-51.1
17,COc1ccc(Cl)cc1NC(=O)C1(c2cccs2)CCOCC1,-17.8
18,O=C(c1ccccc1F)c1cc2c(cc1[N+](=O)[O-])OCCO2,-12.5
19,Cc1[nH]nc2c1C(c1cn[nH]c1-c1ccc(F)cc1)C(C#N)=C(N)O2 (centres unmarked),13.4
20,O=C(OCc1ccccn1)c1ccc(COc2ccccc2Cl)o1,10.1
21,COc1ccccc1NC(=O)CSc1nnc(Cn2nnc(-c3ccccc3)n2)n1-c1ccccc1,-5.02
22,CC(C)NC(=O)COC(=O)/C=C/c1ccc(F)cc1,-1.62
23,Cn1c(SCC(=O)Nc2ccccc2Oc2ccccc2)nnc1C1CC1,-36

row,Structure (SMILES),"hERG current change (%, negative = inhibition) at 10uM [%]"
1,Cc1nnsc1C(=O)N1CCCC(C(=O)c2ccc(C(F)(F)F)cc2)C1 (centres unmarked),-39
2,CCOC(=O)c1c(C)[nH]c(C(=O)OCC(=O)Nc2ccc(Cl)cn2)c1C,6.52
3,O=C(CSc1nnc(-c2ccccn2)n1Cc1ccccc1)NC1CCCC1,-9.99
4,O=C(COc1ccc(Cl)cc1Cl)NCCSc1ccc(Cl)cc1,10.6
5,CCCN(CCC)CCOc1cc(C)ccc1C(C)C.O=C(O)C(=O)O,-44.2
6,CCCCC(CC)CNC(=O)C1CC=CCC1C(=O)O (centres unmarked),6.87
7,COc1ccc(C(=O)N2CCCC(Nc3ccc(C)c(C)c3)C2)cc1F (centres unmarked),0.0102
8,Cc1ccc(C2c3c(oc4ccccc4c3=O)C(=O)N2c2nncs2)cc1 (centres unmarked),-1.24
9,CC(C)(C)c1ccc(C(=O)Nc2ccc(NC(=O)C(=O)O)cc2)o1,24
10,CN(C)S(=O)(=O)c1ccc(C(=O)N2CCN=C2SCc2cccnc2)cc1,6.56
11,CN(CC(=O)NCc1ccccc1F)S(=O)(=O)c1ccc(Cl)cc1,-4.4
12,CC(=O)N1CCc2c(sc3c2c(=O)n(Cc2ccccc2)c(=O)n3CC(=O)NCC2CCCO2)C1 (centres unmarked),-21.6
13,COc1cc(/C=N/N=C2/NC(=O)C(c3ccccc3)S2)ccc1O (centres unmarked),-8.74
14,COc1ccc(OC)c(N2C(=O)CC(=O)NC2=O)c1,5.93
15,COc1ccccc1N1CCN(C(=O)c2cc(C)oc2C)CC1,21
16,COc1ccc(NS(=O)(=O)c2cc(NC(=O)C3CCCO3)ccc2N2CCCC2)cc1 (centres unmarked),4.03
17,S=C(NCCc1ccccn1)Nc1cc(Cl)cc(Cl)c1,3.89
18,Cc1ccccc1-c1nn[nH]n1,3.91
19,CC1CCN(S(=O)(=O)N2CCC(C(=O)NC3CCCC3)CC2)CC1,15.1
20,CC1=C(C(=O)Nc2ccccc2C)C(c2ccc(C)o2)N2C(=O)CSC2=N1 (centres unmarked),-13
